This is one part of the list. Repeats are few or missing, and single values can be far off.
Columns and labels:
Assay in all cases: cell count relative to DMSO control; melanoma cells; higher = more viable cells
Conditions in all cases: library dose: standard library concentration; 72 h
G361 = tested on: G361
IPC-298 = tested on: IPC-298
IST-MEL1 = tested on: IST-MEL1
LB2518-MEL = tested on: LB2518-MEL
LOXIMVI = tested on: LOXIMVI
MEL-HO = tested on: MEL-HO
MZ2-MEL = tested on: MZ2-MEL
MeWo = tested on: MeWo
RPMI7951 = tested on: RPMI7951
RVH-421 = tested on: RVH-421
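Further: cells treated in 1,536-well plates, then fixed and DAPI-stained, with nuclei counted from automated high-throughput microscope images.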

SMILES | cell count (G361) [%] | cell count (IPC-298) [%] | cell count (IST-MEL1) [%] | cell count (LB2518-MEL) [%] | cell count (LOXIMVI) [%] | cell count (MEL-HO) [%] | cell count (MZ2-MEL) [%] | cell count (MeWo) [%] | cell count (RPMI7951) [%] | cell count (RVH-421) [%]
Cn1cnc2c(F)c(Nc3ccc(Br)cc3Cl)c(C(=O)NOCCO)cc21 [selumetinib] + O=c1cc(-c2cccc3c2Sc2ccccc2S3)oc(N2CCOCC2)c1 [KU55933] (first compound 0.075 µM, partner dose 5 µM) | 54.2 | 45.4 | 90.6 | 42.5 | 94.8 | 66.6 | 56.1 | 65.1 | 83.3 | 79.8
COc1cc([C@@H]2c3cc4c(cc3[C@@H](O[C@@H]3O[C@@H]5CO[C@@H](C)O[C@H]5[C@H](O)[C@H]3O)[C@H]3COC(=O)[C@H]23)OCO4)cc(OC)c1O [etoposide] + O=C1NC(=O)/C(=C/c2ccc(-c3ccc(F)cc3O)o2)S1 [AS252424] (first compound 0.1 µM, partner dose 5 µM) | 92 | 71.7 | 115 | 76.2 | 101 | 81.2 | 84 | 116 | 103 | 90.2
CCN(CC)CCNC(=O)c1c(C)[nH]c(/C=C2\C(=O)Nc3ccc(F)cc32)c1C [sunitinib] + C[C@]1(c2nc3c(C(N)=O)cccc3[nH]2)CCCN1 [Veliparib] (first compound 2 µM, partner dose 7 µM) | 73.1 | 70.6 | 115 | 64.5 | 88.8 | 79.3 | 81.2 | 59.5 | 84 | 107
C[C@]1(O)C[C@@H](c2nc(-c3ccc4ccc(-c5ccccc5)nc4c3)c3c(N)nccn32)C1 + CCCCCCCCCCCC1=C(O)C(=O)C=C(O)C1=O [Embelin] (first compound 2 µM, partner dose 6 µM) | 61.1 | 66.3 | 69.5 | 102 | 58.6 | 74.4 | 81.1 | 84.5 | 82.3 | 70
COc1cc([C@@H]2c3cc4c(cc3[C@@H](O[C@@H]3O[C@@H]5CO[C@@H](C)O[C@H]5[C@H](O)[C@H]3O)[C@H]3COC(=O)[C@H]23)OCO4)cc(OC)c1O [etoposide] + O=S(=O)(c1ccccc1)N(CC(F)(F)F)c1ccc(C(O)(C(F)(F)F)C(F)(F)F)cc1 [T0901317] (first compound 0.1 µM, partner dose 7 µM) | 89.8 | 67.8 | 102 | 87.6 | 96.4 | 92.7 | 69.2 | 94.9 | 86.9 | 34.9
Cn1cnc2c(F)c(Nc3ccc(Br)cc3Cl)c(C(=O)NOCCO)cc21 [selumetinib] + c1cc(-c2cnn3cc(-c4ccc(OCCN5CCCCC5)cc4)cnc23)ccn1 [Dorsomorphin] (first compound 0.075 µM, partner dose 2 µM) | 50.1 | 69.3 | 86.8 | 46.4 | 94 | 86.6 | 60.6 | 82.4 | 68 | 74.1
CCN(CC)CCNC(=O)c1c(C)[nH]c(/C=C2\C(=O)Nc3ccc(F)cc32)c1C [sunitinib] + CN(NC(=O)CC(=O)NN(C)C(=S)c1ccccc1)C(=S)c1ccccc1 [STA4783] (first compound 2 µM, partner dose 0.03 µM) | 34 | 68.4 | 12 | 13.6 | 93.3 | 93.8 | 114 | 13.2 | 76.6 | 17.5
COc1cc([C@@H]2c3cc4c(cc3[C@@H](O[C@@H]3O[C@@H]5CO[C@@H](C)O[C@H]5[C@H](O)[C@H]3O)[C@H]3COC(=O)[C@H]23)OCO4)cc(OC)c1O [etoposide] + O=C(O)[C@@H]1[O][Sb](=[O])([O][Sb]2(=[O])[O][C@H]([C@H](O)CO)[C@H](O)[C@H](C(=O)O)[O]2)[O][C@H]([C@H](O)CO)[C@@H]1O [stibogluconate] (first compound 0.1 µM, partner dose 10 µM) | 83.3 | 67.9 | 94.4 | 69.5 | – | 88.5 | 69 | 78 | 79.6 | 102
CCN(CC)CCNC(=O)c1c(C)[nH]c(/C=C2\C(=O)Nc3ccc(F)cc32)c1C [sunitinib] + Clc1ccc(Nc2nnc(Cc3ccncc3)c3ccccc23)cc1 [vatalanib] (first compound 2 µM, partner dose 10 µM) | 64.2 | 55 | 78.3 | 65 | 63.7 | 50.4 | 68.3 | 49.6 | 58.6 | 67.2
COc1cc([C@@H]2c3cc4c(cc3[C@@H](O[C@@H]3O[C@@H]5CO[C@@H](C)O[C@H]5[C@H](O)[C@H]3O)[C@H]3COC(=O)[C@H]23)OCO4)cc(OC)c1O [etoposide] + O=C(CCCCCCC(=O)Nc1ccccc1)NO [vorinostat] (first compound 0.1 µM, partner dose 0.4 µM) | 70.4 | 80.8 | – | 69.2 | – | 79.4 | 86.7 | 78.9 | 102 | 80
C[C@]1(O)C[C@@H](c2nc(-c3ccc4ccc(-c5ccccc5)nc4c3)c3c(N)nccn32)C1 + COc1ccc(COc2ccc(Cc3cnc(N)nc3N)cc2OC)cc1 [GW2580] (first compound 2 µM, partner dose 5 µM) | 65.3 | 79.6 | 104 | 85.8 | 91.1 | 89.3 | 87.2 | 70.2 | 78.2 | 289
Cn1cnc2c(F)c(Nc3ccc(Br)cc3Cl)c(C(=O)NOCCO)cc21 [selumetinib] + Cn1cncc1[C@@](N)(c1ccc(Cl)cc1)c1ccc2c(c1)c(-c1cccc(Cl)c1)cc(=O)n2C [tipifarnib] (first compound 0.075 µM, partner dose 0.05 µM) | 68.9 | 63.9 | 80.8 | 43.8 | 80.4 | 82.8 | 66.8 | 63.4 | 80.6 | 89.5
Cn1cnc2c(F)c(Nc3ccc(Br)cc3Cl)c(C(=O)NOCCO)cc21 [selumetinib] + O=C(O)C(=O)Nc1sc2c(c1C(=O)O)CCNC2 [TCS401] (first compound 0.075 µM, partner dose 8.33333 µM) | 82.9 | 54.4 | 111 | 54 | 104 | 96.1 | 76.8 | 71.6 | 118 | 85.8
COc1cc([C@@H]2c3cc4c(cc3[C@@H](O[C@@H]3O[C@@H]5CO[C@@H](C)O[C@H]5[C@H](O)[C@H]3O)[C@H]3COC(=O)[C@H]23)OCO4)cc(OC)c1O [etoposide] + CCCS(=O)(=O)Nc1ccc(F)c(C(=O)c2c[nH]c3ncc(Cl)cc23)c1F [PLX4720] (first compound 0.1 µM, partner dose 0.4 µM) | 61.1 | 62.1 | 92 | – | 95.4 | 74.1 | – | 103 | – | 82.9
CCN(CC)CCNC(=O)c1c(C)[nH]c(/C=C2\C(=O)Nc3ccc(F)cc32)c1C [sunitinib] + CC(=O)O[C@@]12CO[C@@H]1C[C@H](O)[C@@]1(C)C(=O)[C@H](O)C3=C(C)[C@@H](OC(=O)[C@H](O)[C@@H](NC(=O)OC(C)(C)C)c4ccccc4)C[C@@](O)([C@@H](OC(=O)c4ccccc4)[C@H]21)C3(C)C [Docetaxel] (first compound 2 µM, partner dose 0.0005 µM) | 13.9 | 37.3 | 45.5 | 32.4 | 110 | 34.2 | 29.4 | 33.7 | 31.1 | 71.7
Cn1cnc2c(F)c(Nc3ccc(Br)cc3Cl)c(C(=O)NOCCO)cc21 [selumetinib] + Cn1nnc2c(C(N)=O)ncn2c1=O [temozolomide] (first compound 0.075 µM, partner dose 10 µM) | 69.8 | 50.2 | 89.1 | 42.2 | 93.8 | 95.4 | 62.7 | 75.2 | 116 | 74.9
C[C@]1(O)C[C@@H](c2nc(-c3ccc4ccc(-c5ccccc5)nc4c3)c3c(N)nccn32)C1 + Nc1nc(F)nc2c1ncn2[C@@H]1O[C@H](CO)[C@@H](O)[C@@H]1O [fludarabine] (first compound 2 µM, partner dose 1 µM) | 74.9 | 65.1 | 72.9 | – | 61.5 | 64.7 | – | 59.2 | 87.5 | 71.8
Cn1cnc2c(F)c(Nc3ccc(Br)cc3Cl)c(C(=O)NOCCO)cc21 [selumetinib] + CC(=O)O[C@@]12CO[C@@H]1C[C@H](O)[C@@]1(C)C(=O)[C@H](O)C3=C(C)[C@@H](OC(=O)[C@H](O)[C@@H](NC(=O)OC(C)(C)C)c4ccccc4)C[C@@](O)([C@@H](OC(=O)c4ccccc4)[C@H]21)C3(C)C [Docetaxel] (first compound 0.075 µM, partner dose 0.0005 µM) | 13.1 | 37.4 | 40.1 | 39.4 | 74.2 | 34 | 28.4 | 24.6 | 23.9 | 43.7
Cn1cnc2c(F)c(Nc3ccc(Br)cc3Cl)c(C(=O)NOCCO)cc21 [selumetinib] + O=C1NC(=O)/C(=C/c2ccc(-c3ccc(F)cc3O)o2)S1 [AS252424] (first compound 0.075 µM, partner dose 5 µM) | 53.7 | 41.5 | 83.5 | 39.7 | 97.5 | 72.4 | 36.2 | 60.8 | 124 | 84.7
Cn1cnc2c(F)c(Nc3ccc(Br)cc3Cl)c(C(=O)NOCCO)cc21 [selumetinib] + Cc1cc([N+](=O)[O-])ccc1NS(=O)(=O)c1cc(Cl)ccc1Cl [FH535] (first compound 0.075 µM, partner dose 5 µM) | 42.1 | 54.8 | 62.4 | – | 90.5 | 44.4 | – | 68.5 | 93.5 | 63.3

Reference: the supplement of paper PMC4604168 (melanoma cell lines)
